Data from the supplement of paper PMC3334620.
Whole data set: some 33,000 sequences, median “E-score (-0.5 to 0.5)” near -0.032, cut for the highest 2% near 0.36. The list shows a part of the results.

biological target: T1, Sko1 (UniProt Q02100); experiment: PBM E-score (8-mer binding enrichment) (E-score (-0.5 to 0.5)); higher = stronger / more preferred TF binding; most listed sequences are background and not binding sites; settings: protein concentration: 200 nM; construct: GST-full length
T1 sequence: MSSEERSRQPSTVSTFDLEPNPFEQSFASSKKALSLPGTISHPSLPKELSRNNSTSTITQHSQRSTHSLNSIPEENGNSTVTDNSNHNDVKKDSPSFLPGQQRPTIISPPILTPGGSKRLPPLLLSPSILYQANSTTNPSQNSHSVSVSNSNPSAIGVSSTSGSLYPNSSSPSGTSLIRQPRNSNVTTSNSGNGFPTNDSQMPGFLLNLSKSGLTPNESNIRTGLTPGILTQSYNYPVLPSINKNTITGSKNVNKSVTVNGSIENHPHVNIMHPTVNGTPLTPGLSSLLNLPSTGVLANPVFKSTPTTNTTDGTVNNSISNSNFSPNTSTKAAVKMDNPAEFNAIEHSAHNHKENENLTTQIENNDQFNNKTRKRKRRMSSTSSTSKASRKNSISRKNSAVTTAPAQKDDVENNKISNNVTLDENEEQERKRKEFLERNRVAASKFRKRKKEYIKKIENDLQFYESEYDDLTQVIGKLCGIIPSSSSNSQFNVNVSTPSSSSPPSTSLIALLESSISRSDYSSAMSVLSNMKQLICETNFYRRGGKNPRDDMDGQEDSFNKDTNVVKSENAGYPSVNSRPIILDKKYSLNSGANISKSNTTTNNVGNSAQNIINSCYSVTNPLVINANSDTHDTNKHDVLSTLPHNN
Summary of the method: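 Masliner-normalised scans of fluorescent anti-GST signal were the basis for scoring. That signal came from GST-tagged yeast transcription factors applied at about 100-200 nM to double-stranded universal all-10-mer Agilent arrays on fresh or once-stripped slides. Each ungapped eight-base word, pooled with its reverse complement, received an E-score from the Universal PBM Analysis Suite.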

Sequence | PBM E-score
ACTGCTCG | 0.0307
AGTCTGAG | -0.197
ATCGCGGG | -0.194
AGTTAAGG | -0.0877
CTACGTGC | 0.354
ATTTTATG | 0.209
CCAGTACG | 0.215
GCAGAAGA | 0.169
AGACATAA | 0.0234
CCGTATAG | -0.115
GTCTTTAA | 0.178
CATTTTCA | 0.163
ACACTCCC | -0.133
CAGGAATA | -0.0275
GGTCCGTA | -0.222
CCAAGTTA | -0.0787
TTCCGAAA | 0.0588
ATTTAATC | 0.215
TAAGTACA | 0.193
CGGACCTA | -0.173
GGAATAAA | 0.0414
GGGTCCAA | -0.209
ATCATAAA | 0.175
GGATGGAA | -0.197
AATGGCCT | -0.195

Sequence | PBM E-score
ATCAGCAG | 0.0541
ACAGCGTC | 0.075
AGGAGCCT | -0.337
CACTGGAG | -0.293
ACATCCGG | -0.227
GCTTGGGA | -0.366
CGGACGCC | -0.137
GGTTCGCA | -0.211
CTGGCTTA | -0.0476
AATTTTAA | 0.143
AATGAGTA | 0.178
ATAGCCAA | 0.0838
GCGGTGCA | -0.324
ATTAAATG | 0.273
CTGTACCC | -0.24
GGTAAAGA | 0.0235
CGTCTGAA | 0.155
AAATGCCC | -0.246
ACCTTCCG | 0.0133
CTATTAGC | 0.164
ACGATTTG | 0.137
AACTGGGT | -0.25
ATCATTTC | 0.251
ATACAACG | 0.25
AGTACAAG | -0.141

Sequence | PBM E-score
AACACCAA | 0.109
ACAGCACG | 0.0338
CGCGTCGA | 0.0749
AAAGGCAC | -0.137
ACTACTCA | 0.0815
ACGTACGT | 0.473
CTAAAACC | 0.0654
CGGCCTAG | -0.324
ACCGAGCG | -0.184
ACATACGA | 0.316
AGTACTGG | -0.113
ACATCGTA | 0.232
ATTAAAGA | 0.24
ATGTTTGC | 0.00599
TCGTTCCA | 0.0128
GTGATGGA | 0.0311
TCCGTGCA | 0.00563
ACACAGCG | 0.153
AGGCCTGG | -0.234
TAGTCCAA | -0.132
CGTTCCAC | -0.147
CAACCTTA | 0.15
ATAGACTC | -0.148
CTTAATTA | 0.134
CAGACTAC | -0.0269

Sequence | PBM E-score
GAGTAGCA | 0.0153
CAAGCCAA | 0.046
ACTCACCT | -0.132
AAAGAGCA | 0.107
GTTACCAA | 0.113
ACAGAGTC | 0.00649
GTTGCTCA | -0.0195
GAGTTTCC | -0.217
AGCGCCAA | -0.154
CGGGACAG | -0.147
CCGAGAGA | -0.284
CGGACAGC | -0.127
AACTCATA | -0.00924
AGTTATAT | 0.00967
ACGCGCGA | 0.109
GTACGAAA | 0.331
ACTCTAGG | -0.155
GAACTATA | -0.00048
AGGGCCTG | -0.348
GAACATTA | 0.185
ATTGCCTG | -0.00796
CACGGATG | -0.081
AACTGATG | 0.0734
CCATCACA | -0.0175
AAGCGCCC | -0.291

Sequence | PBM E-score
AAAGGGTA | -0.0759
TCAAATCA | 0.119
CGAGTCTA | -0.162
CAAGGGGA | -0.0134
AAAAACCT | 0.0483
CTGCCCGA | -0.173
AGTATTAG | 0.00871
CGGTGACC | -0.172
AGCAACCA | -0.00225
AAATCGGC | -0.191
CAATGTCC | -0.105
ATCAGCCC | -0.148
CCATATTC | 0.0472
ACCTTCGG | -0.171
ATGTAACA | 0.226
AAAGGAAA | 0.0268
CTCGGCGA | -0.0899
GTGTTTCA | 0.0322
GCTATAAC | -0.137
AGGAAGGC | -0.148
GCCTGAAC | -0.33
CCCCACCC | 0.00496
CCCTACGC | 0.102
CTTCAGAA | -0.0195
GGGCCACC | -0.266

Sequence | PBM E-score
AAATCTAA | 0.00445
AGTTTTGA | 0.0411
ACTCCAAC | -0.0882
ACTCTAAT | 0.0971
GATCCTCC | -0.264
GCAGCAAA | -0.178
GGGATTGA | 0.0574
CGGGGGGC | -0.2
GGGCCCAA | -0.129
CACGTGTC | 0.357
GTGCCAGA | -0.141
GGTATGCA | -0.0427
CGGTATAC | -0.116
AAGGTTGC | -0.0775
ATCGATGG | 0.0422
AGAGGCCT | -0.264
GCCTCACC | -0.254
GGCTCGAC | -0.11
AGTGTAAA | 0.0531
TATCTCGA | 0.139
CAGTATGC | -0.0805
CGCTTGGA | -0.176
GGCGTGTA | 0.0253
ATCGTAAA | 0.32
GCAACGCA | 0.0485

Sequence | PBM E-score
CTGGGTGA | -0.0411
CGGTGTCC | -0.317
TGCCCTAA | -0.208
AAGATAAC | 0.0629
ACTTTTTA | 0.168
GCAGCGCC | -0.0609
ACGTAGCT | 0.444
GCATAAAC | 0.166
ATCCTGTC | -0.0275
ATAGCTCA | 0.0168
AACATAGT | 0.115
CACTAAGA | -0.0742
CGGGCCAA | -0.242
AGCTGATA | 0.162
AAAAAGAC | 0.183
TCAGACGA | -0.0213
CACATCAC | 0.154
AAGAGGAC | -0.238
CTAAGTAC | 0.153
AAGAGCGG | -0.104
AGAGCAAT | -0.187
TCACCCGA | 0.028
